Drawing on publication PMC10320511, this text covers binding for one substance.

Protein sequences, listed by entry. Tags and fused reporters are not part of them.
UniProt Q01371: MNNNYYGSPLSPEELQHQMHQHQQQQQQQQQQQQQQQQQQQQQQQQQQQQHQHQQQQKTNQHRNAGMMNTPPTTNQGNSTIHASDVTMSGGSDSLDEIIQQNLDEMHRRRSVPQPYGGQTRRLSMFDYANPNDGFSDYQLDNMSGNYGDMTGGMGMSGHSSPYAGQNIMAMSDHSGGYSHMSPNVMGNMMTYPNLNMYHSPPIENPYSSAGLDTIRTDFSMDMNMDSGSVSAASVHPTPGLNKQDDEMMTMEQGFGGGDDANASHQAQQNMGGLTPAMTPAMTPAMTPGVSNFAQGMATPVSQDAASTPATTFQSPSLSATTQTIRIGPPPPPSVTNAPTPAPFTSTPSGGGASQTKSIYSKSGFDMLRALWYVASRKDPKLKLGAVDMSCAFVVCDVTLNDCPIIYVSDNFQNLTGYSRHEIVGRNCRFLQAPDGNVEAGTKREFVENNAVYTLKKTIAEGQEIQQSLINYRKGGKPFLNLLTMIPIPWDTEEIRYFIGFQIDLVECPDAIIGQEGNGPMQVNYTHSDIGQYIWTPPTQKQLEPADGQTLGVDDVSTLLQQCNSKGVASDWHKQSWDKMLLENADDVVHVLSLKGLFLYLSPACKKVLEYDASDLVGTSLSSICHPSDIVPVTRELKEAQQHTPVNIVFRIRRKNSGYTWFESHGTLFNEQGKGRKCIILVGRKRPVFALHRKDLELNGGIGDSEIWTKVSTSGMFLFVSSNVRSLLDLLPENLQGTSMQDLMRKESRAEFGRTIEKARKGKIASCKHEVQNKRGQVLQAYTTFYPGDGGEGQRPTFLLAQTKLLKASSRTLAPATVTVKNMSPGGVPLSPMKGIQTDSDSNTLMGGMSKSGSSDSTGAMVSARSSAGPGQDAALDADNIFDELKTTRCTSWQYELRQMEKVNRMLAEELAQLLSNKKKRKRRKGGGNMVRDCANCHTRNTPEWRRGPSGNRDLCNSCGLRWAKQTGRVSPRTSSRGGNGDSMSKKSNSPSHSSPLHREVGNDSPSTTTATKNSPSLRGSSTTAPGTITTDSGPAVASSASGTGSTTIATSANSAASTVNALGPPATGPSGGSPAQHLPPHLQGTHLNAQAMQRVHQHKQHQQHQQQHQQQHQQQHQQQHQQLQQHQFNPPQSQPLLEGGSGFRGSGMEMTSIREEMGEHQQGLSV

Test [1] deals with T1, FRQ Δ604–646, V5H6-tagged (Neurospora crassa) (UniProt P19970).
T1 sequence: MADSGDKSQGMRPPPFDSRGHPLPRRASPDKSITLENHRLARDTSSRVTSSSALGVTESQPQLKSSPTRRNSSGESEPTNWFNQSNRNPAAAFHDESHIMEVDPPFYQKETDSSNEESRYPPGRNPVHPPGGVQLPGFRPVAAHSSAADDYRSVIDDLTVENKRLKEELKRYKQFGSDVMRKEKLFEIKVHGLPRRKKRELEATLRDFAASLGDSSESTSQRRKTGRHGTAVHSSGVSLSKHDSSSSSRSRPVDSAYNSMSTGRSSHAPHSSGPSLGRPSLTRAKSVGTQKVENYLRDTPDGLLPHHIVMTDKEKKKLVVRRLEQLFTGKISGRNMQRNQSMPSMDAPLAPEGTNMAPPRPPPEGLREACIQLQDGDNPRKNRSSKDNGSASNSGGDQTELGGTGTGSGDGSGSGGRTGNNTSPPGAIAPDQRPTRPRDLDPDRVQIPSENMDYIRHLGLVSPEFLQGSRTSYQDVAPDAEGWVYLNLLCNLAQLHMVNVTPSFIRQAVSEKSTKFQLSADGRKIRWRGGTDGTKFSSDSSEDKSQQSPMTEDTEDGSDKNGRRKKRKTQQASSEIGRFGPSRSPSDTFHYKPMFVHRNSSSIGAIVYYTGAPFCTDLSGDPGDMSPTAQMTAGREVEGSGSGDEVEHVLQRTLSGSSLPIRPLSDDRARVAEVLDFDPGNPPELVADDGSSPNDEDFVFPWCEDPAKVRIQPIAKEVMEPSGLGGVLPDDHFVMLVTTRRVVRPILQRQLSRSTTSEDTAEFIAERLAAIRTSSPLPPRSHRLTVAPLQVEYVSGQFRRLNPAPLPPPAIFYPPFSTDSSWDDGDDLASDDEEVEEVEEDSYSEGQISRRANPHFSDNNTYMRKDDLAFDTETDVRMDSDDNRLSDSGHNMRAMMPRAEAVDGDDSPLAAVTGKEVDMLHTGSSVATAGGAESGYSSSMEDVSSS
In words: co-IP; V5H6-tagged FRQ (wild type or mutant) pulled down with V5 agarose from Neurospora lysate (cultures in the light, 25 °C); 50 mM Hepes pH 7.4, 137 mM NaCl, 10% glycerol, 0.4% NP-40; 4 °C, 2 h; Western blot with FRQ, FRH, WC-1 and WC-2 antibodies. A general note: In western blotting, separated proteins are transferred to a membrane and probed.

Test [2] has as its target T2, FRQ E835D, V5H6-tagged (Neurospora crassa) (UniProt P19970).
T2 sequence: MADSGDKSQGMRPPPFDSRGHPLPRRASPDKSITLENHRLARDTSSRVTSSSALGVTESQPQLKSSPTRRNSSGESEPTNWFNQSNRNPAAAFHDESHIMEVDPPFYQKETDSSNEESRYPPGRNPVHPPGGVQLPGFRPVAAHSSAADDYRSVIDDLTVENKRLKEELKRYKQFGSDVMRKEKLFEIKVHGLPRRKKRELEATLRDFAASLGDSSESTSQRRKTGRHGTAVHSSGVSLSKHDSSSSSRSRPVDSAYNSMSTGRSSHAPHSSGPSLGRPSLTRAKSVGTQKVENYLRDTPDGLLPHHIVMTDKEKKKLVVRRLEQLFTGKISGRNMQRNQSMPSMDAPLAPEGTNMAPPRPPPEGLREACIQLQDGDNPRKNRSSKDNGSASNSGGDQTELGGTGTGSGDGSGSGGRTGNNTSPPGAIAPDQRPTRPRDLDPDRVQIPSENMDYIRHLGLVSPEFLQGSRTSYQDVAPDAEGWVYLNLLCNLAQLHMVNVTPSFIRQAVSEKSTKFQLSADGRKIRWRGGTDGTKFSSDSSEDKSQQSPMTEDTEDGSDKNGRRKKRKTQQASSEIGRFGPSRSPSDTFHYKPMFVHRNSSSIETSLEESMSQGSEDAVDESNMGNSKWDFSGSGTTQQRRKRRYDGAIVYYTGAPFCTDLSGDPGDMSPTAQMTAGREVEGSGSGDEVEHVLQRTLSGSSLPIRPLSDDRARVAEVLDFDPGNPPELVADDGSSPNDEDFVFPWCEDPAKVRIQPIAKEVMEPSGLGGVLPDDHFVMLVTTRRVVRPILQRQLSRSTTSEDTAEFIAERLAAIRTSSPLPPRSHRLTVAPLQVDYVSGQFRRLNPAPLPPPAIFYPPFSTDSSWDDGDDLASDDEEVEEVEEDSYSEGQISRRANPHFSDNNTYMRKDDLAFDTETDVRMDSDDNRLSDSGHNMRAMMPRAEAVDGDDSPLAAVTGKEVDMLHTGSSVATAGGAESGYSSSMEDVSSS
Described as above.

No constants are given. Whether binding was seen depends on the method and setting. In cells and extracts the contact can be indirect. Some results given as binding are weak or reduced against the parent protein; the word gives no strength. Tags and fused reporters may be left off the sequences shown.

Regarding “White Collar-1 (WC-1) (from UniProt Q01371 1-1167)”, the binding entry in test [1] is reported as “binds weakly”; in test [2], “binds”.
